From the supplement of paper PMC11283458
Where a name gives a salt, the structure may show the parent alone. Some of the results follow. Most values come without repeats; read them as rough.

These molecules were tested on Mef2d microexon dual Nano/Firefly luciferase splicing reporter in Neuro-2a cells (assay: B-score of Firefly/Nano luminescence ratio, V1 Mef2d microexon reporter (B-score (plate-normalised)); higher = more Mef2d microexon inclusion). Conditions: 24 h.
`N=c1n(CCN2CCCCC2)c2ccccc2n1CC(=O)c1cccc([N+](=O)[O-])c1` (4 µM) was tested, and the B-score was 0.791. Molecule `Cc1ccc(Cl)cc1NC(=O)CC(C)CC(=O)O` (stereo not given) (4 µM) has a B-score of 7.47. `CC(=O)OC1(C(=O)/C=C/c2ccccc2)CCCCC1` (4 µM) gave a B-score of -4.5. Work on `CC[C@@H]1C(=O)N(C)c2cnc(Nc3ccc(C(=O)NC4CCC(N5CCN(CC6CC6)CC5)CC4)cc3OC)nc2N1C(C)C` (stereo not given in full) [BI-6727, volasertib] (0.5 µM) yielded a B-score of -7.89. Molecule `Cc1cc(Nc2cc(C)c(C#N)c(NC(C)CCCC(C)(C)O)n2)n[nH]1` (stereo not given) [TC-A 2317 hydrochloride] (0.5 µM) has a B-score of 7.66. `CCOC(=O)c1cc(C#N)c(Sc2ccc(Cl)cc2)nc1C(F)(F)F` (4 µM) gave a B-score of 9.09. In the case of `O=C(Cn1nnc(N2CCOCC2)n1)NNC(=S)Nc1ccc(F)cc1F` (4 µM), the B-score is reported as 8.21. Work on `O=[N+]([O-])c1c(Oc2ccc(F)c(F)c2)nc2sccn12` (4 µM) yielded a B-score of -2.08. In the case of `CON=C1CCCc2c(C(=O)NN=Cc3ccccc3Cl)sc(SC)c21` (4 µM), the B-score is reported as -8.77. For `Cc1nc(C(N)=NOC(=O)c2c(-c3c(Cl)cccc3Cl)noc2C)cs1` (4 µM), the B-score was 3.12. In the case of `Nc1ncn(C2OC(CO)C(O)C2O)c(=O)n1` (stereo not given) [Azacytidine-5] (4 µM), the B-score is reported as -4.2. `COc1ccc(C=C2CCCc3ccccc3C2=O)cc1` (4 µM) gave a B-score of -2.16. For `Cc1nc(C(N)=NOC(=O)c2c(-c3ccccc3Cl)noc2C)cs1` (4 µM), the B-score was 4.47. `Clc1ccc2nc(-c3ccc4c(c3)OCCO4)cn2c1` (4 µM) showed a B-score of -2.13. For `Oc1cccc(-c2nc(N3CCOCC3)c3sccc3n2)c1` [PI3-Kinase a Inhibitor 2] (0.5 µM), the B-score was -4.53.
